Data on 88 molecules can be found in PubChem BioAssay AID463173 (ICCB-Longwood Screening Facility, Harvard Medical School, 2010).

Molecules are shown by their SMILES. In all, about 52,000 compounds went through this assay and about 4,300 (8.3%) were called active. Cut-off read from the data, not from the text of the source: active = survival mostly below about 52% (no sharp cut-off); inactive = mostly above about 56%. Some of the results follow.

In this assay the test system is DeltatarO mutant. Nature of the assay: S. aureus survival, RN4220 and DeltatarO strains – OD600, teichoic acid synthesis inhibitors, primary screen (AID 463173). To be noted: S. aureus RN4220 wild type/DeltatarO growth, OD600, 18 h, active compounds read low, screened at 18.75 µg/mL (by protocol).
With `COC(=O)c1c(-c2ccc(Cl)cc2)noc1N1CCN(c2ccc(OC)cc2)CC1`, the survival was inactive: 88%.

Take `Cc1ccc2c(c1)NC(=O)C(CC(=O)Nc1cc(Cl)ccc1C)O2` (stereo not drawn): the survival was inactive: 90%.

As to `COc1ccc(C2CC(c3c(O)n(C4CCCCC4)c(=O)[nH]c3=O)=Nc3ccccc3S2)cc1` (stereo not drawn), the survival is inactive: 48%.

For `CCn1cc(C(=O)Nc2ccccc2)c(=O)c2ccc(C)nc21`, the survival was inactive: 78%.

With `CCOc1ccc(CCNC(=O)CN2C(=O)C(CC)Oc3ccccc32)cc1OCC` (stereo not drawn), the survival is inactive: 89%.

In the case of `COC(=O)C1=C(C)OC(N)=C(C#N)C1c1c(C)nn(-c2ccccc2)c1Cl` (stereo not drawn), the survival was inactive: 92%.

Regarding `COCC(=O)N(C)c1nnc(-c2ccc(OC)cc2)s1`, the survival was inactive: 85%.

With `COc1ccc(C(=O)NCc2nnc(SCC(=O)Nc3ccccc3)n2-c2ccc(F)cc2)cc1`, the survival was inactive: 73%.

As to `COc1ccc(NC(=O)c2c(NCc3ccc(C)o3)sc3c2CCC(C)C3)c(OC)c1` (stereo not drawn), the survival was inactive: 82%.

As for `COc1ccc(OC)c(NC(=O)CSc2ccnc(=O)[nH]2)c1`, the survival is inactive: 78%.

Regarding `Cn1c(=O)oc2cc(S(=O)(=O)CCC(=O)N3CCN(c4ccccc4)CC3)ccc21`, the survival is inactive: 94%.

As for `CCOc1ccc(C(=O)Nc2cccc(NC(=O)c3ccco3)c2)cc1Cl`, the survival is inactive: 55%.

Regarding `COc1ccccc1CNC(=O)c1ccc(N2CCCC2)c(NC(=O)NCc2ccccc2)c1`, the survival is inactive: 78%.

Consider `O=C(O)c1ccc(CSc2n[nH]c(-c3ccco3)n2)cc1`, for which the survival is inactive: 101%.

Consider `O=C(COc1ccccc1F)OCc1cc(=O)n2nc(-c3cccs3)sc2n1`, for which the survival is inactive: 119%.

Turning to `CCC(C(=O)N1CCN(c2ccccc2)CC1)n1nc(C)n2c(cc3sccc32)c1=O` (stereo not drawn), the survival was inactive: 101%.

Regarding `CCc1nn2c(=O)cc(COC(=O)CNC(=O)c3ccccc3)nc2s1`, the survival was inactive: 123%.

`O=C(Nc1ccc(Br)cc1)C1CCN(c2cnccn2)CC1`: the survival was inactive: 67%.

Regarding `COc1cc(OC)c(Nc2cc(C)nc3ncnn23)cc1Cl`, the survival is inactive: 97%.

Regarding `COc1ccc(Cn2c(=O)[nH]c3cc(C(=O)N4CCN(c5cc(C)ccc5C)CC4)ccc3c2=O)cc1`, the survival is inactive: 73%.

Take `COc1ccc(C)cc1NC(=O)c1cc(S(=O)(=O)NC2CCCCCC2)ccc1F`: the survival is inactive: 80%.

With `NC(=O)c1cc(S(=O)(=O)N2CCN(c3ccc(F)cc3)CC2)cs1`, the survival is inactive: 88%.

With `CCC(CC)c1nn2c(=O)cc(COc3ccc(NC(=O)c4ccccc4Cl)cc3)nc2s1`, the survival is inactive: 94%.

With `Cc1ccccc1CNC(=O)C1CCN(c2nn3cc(-c4ccc(F)cc4)nc3s2)CC1`, the survival was inactive: 93%.

Take `CC1CCCCN1CCCNC(=O)Cn1ncc2c([nH]c3ccccc32)c1=O` (stereo not drawn): the survival was inactive: 124%.

On to `Cc1cccc(CNS(=O)(=O)c2ccc3[nH]c(=O)ccc3c2)c1`, for which the survival is inactive: 99%.

In the case of `CCCOc1ccc(-c2nn(-c3ccccc3)cc2C2NC(=O)NC(C)=C2C(=O)OC(C)C)cc1` (stereo not drawn), the survival was inactive: 54%.

Consider `O=C1Nc2c(c(=O)[nH]c(=O)n2-c2ccccc2)C1(NS(=O)(=O)c1ccc(Cl)cc1)C(F)(F)F` (stereo not drawn), for which the survival was inactive: 141%.

For the molecule `Cc1ccc(NC(=O)Cn2c(=O)n(CCCCCC(=O)NCc3ccc(F)cc3)c(=O)c3sccc32)cc1C`, the survival is inactive: 74%.

For `O=C(Cc1ccc(F)cc1)NC1CC(=O)N(c2ccccc2)C1` (stereo not drawn), the survival was inactive: 88%.

As for `CCOc1ccc(Cn2nnc3c(=O)[nH]c(C4CCN(C(=O)c5ccccc5)CC4)nc32)cc1`, the survival was active: 4%.

Regarding `COc1cc(-c2nnc(SCC(=O)NCc3ccccc3Cl)o2)cc(OC)c1OC`, the survival is inactive: 106%.

For the molecule `Cc1nc(N)sc1C(N)=O`, the survival is inactive: 82%.

Consider `COc1ccc(-c2cnnn2-c2ccc(NC(=O)c3c(F)cccc3F)cc2)cc1`, for which the survival is inactive: 98%.

With `COc1ccc(-c2cnnn2-c2ccc(NC(=O)c3ccc(S(=O)(=O)N(C)C)cc3)cc2)cc1`, the survival is inactive: 81%.

`CC(=O)c1cc(-c2ccccc2)n(CC(=O)NC2CCCCC2)c1C`: the survival was inactive: 80%.

For the molecule `Cc1cc(C)c2c(CC(=O)Nc3c(C(=O)Nc4ccc(Cl)cc4)oc4ccccc34)coc2c1`, the survival is inactive: 77%.

`COc1ccc(CNC(=O)CN2C(=O)c3cccnc3Oc3ccc(C)cc32)cc1`: the survival is inactive: 98%.

Regarding `CCc1cccc(C)c1NC(=O)CSc1nnc(CC)n2c1cc1occc12`, the survival was inactive: 67%.

Take `Cc1cc(OCC(=O)N(Cc2sccc2C)C2CCS(=O)(=O)C2)ccc1Cl` (stereo not drawn): the survival is inactive: 81%.

As for `COc1ccc(Nc2cc(C(=O)NCc3ccccc3OC)c3ccccc3n2)cc1`, the survival was active: -5%.

For the molecule `COc1ccc(N2CCN(c3oc(/C=C/c4cc(OC)c(OC)c(OC)c4)nc3C#N)CC2)cc1`, the survival was active: 49%.

As to `COc1ccc(F)cc1S(=O)(=O)NCCc1sc2nc(-c3ccc(F)cc3)nn2c1C`, the survival was inactive: 90%.

As to `CCc1nnc(SCC(=O)Nc2ccc(F)cc2F)c2cc3sc(C)cc3n12`, the survival was inactive: 103%.

With `CCOC(=O)c1ccccc1NC(=O)N(C)CCc1c(C)nn(CC)c1C`, the survival is inactive: 78%.

Consider `Cc1cc(C)cc(Oc2nc3c(c(=O)n(C)c(=O)n3C)n2Cc2ccc(F)cc2)c1`, for which the survival is inactive: 76%.

In the case of `CCc1ccc(CNC(=O)CN2CCSc3ccccc32)cc1`, the survival was inactive: 86%.

On to `CCOC(=O)N1CCc2c(sc3c2c(=O)n(CCc2ccccc2)c(=O)n3Cc2c(F)cccc2Cl)C1`, for which the survival is inactive: 85%.

For `O=C(CN1C(=O)COc2ccc(S(=O)(=O)N3CCCCCC3)cc21)NCc1ccc(F)cc1`, the survival was inactive: 68%.

For `Cc1ccc(NC(=O)CSc2nc3n[nH]c(C)c3c(=N)n2-c2cccc(C)c2)cc1`, the survival was active: -5%.

Regarding `CCCSCCCNC(=O)c1ccc2nc(Cc3ccccc3)oc2c1`, the survival was inactive: 69%.

Turning to `CCSc1ncc(Cl)c(C(=O)Nc2ccc(S(=O)(=O)N(C)c3ccccc3)cc2)n1`, the survival is inactive: 71%.

Take `COc1ccccc1CNC(=O)c1ccc(-c2nc(CN3CCc4ccccc43)c(C)o2)cc1`: the survival is inactive: 75%.

Take `Cc1ccc(OCC(=O)Nc2ccc3nc(SCC(=O)N4CCc5ccccc54)sc3c2)cc1`: the survival is inactive: 57%.

Consider `COc1ccc(NC(=O)c2cccn2-c2nnc(N3CCCCC3)s2)cc1`, for which the survival is inactive: 71%.

Consider `O=C(O)CCCN1CCCC1=O`, for which the survival is inactive: 81%.

As to `Cc1cc(C)cc(OCC(=O)Nc2ccc(-c3nc4ccccc4o3)cc2)c1`, the survival was inactive: 51%.

Consider `Cc1cc(C)c2c(CC(=O)N(Cc3ccccc3)C3CCS(=O)(=O)C3)coc2c1` (stereo not drawn), for which the survival was inactive: 76%.

For the molecule `CCC(=O)N1CCc2cc(S(=O)(=O)NC(C(=O)Nc3ccc(C(C)=O)cc3)C(C)C)ccc21` (stereo not drawn), the survival is inactive: 94%.

Take `Cn1c(=O)oc2cc(S(=O)(=O)Nc3ccc(C(=O)O)cc3)ccc21`: the survival was inactive: 109%.

For the molecule `CCC(=O)N1CCc2cc(Br)cc(S(=O)(=O)N3CCCC(C(=O)N(C)c4ccc(Br)cc4)C3)c21` (stereo not drawn), the survival is inactive: 118%.

For `Clc1ccc(N2CCN(c3ncnc4c3nc3n4CCCC3)CC2)cc1`, the survival was inactive: 101%.

For `COc1ccc(-c2nc(CS(=O)CC(=O)NCc3ccccc3OC)c(C)o2)cc1` (stereo not drawn), the survival is inactive: 124%.

In the case of `COc1ccc2c(c1)CC(C(=O)NCCCN1CCN(c3ccc(F)cc3)CC1)CO2` (stereo not drawn), the survival is inactive: 79%.

For the molecule `COc1cccc(N2CCN(C(=O)C3CCN(S(=O)(=O)c4ccc5c(c4)oc(=O)n5C)CC3)CC2)c1`, the survival was inactive: 94%.

For the molecule `COc1cccc(C(=O)Nc2cc3c(cc2C(=O)c2ccc(C)cc2)OCCO3)c1`, the survival is inactive: 78%.

As for `CCOC(=O)C1CCCN(c2nc3c(S(=O)(=O)c4ccc(C)c(C)c4)nnn3c3ccc(Cl)cc23)C1` (stereo not drawn), the survival was inactive: 87%.

Regarding `CCn1c(=O)c2sccc2n2c(CCC(=O)Nc3cc(C)cc(C)c3)nnc12`, the survival was inactive: 74%.

As for `Cc1ccc(Cl)cc1N1CCN(c2ncnc3onc(C)c23)CC1`, the survival was active: 52%.

Consider `NS(=O)(=O)c1ccc(N=NSCCO)cc1`, for which the survival is inactive: 67%.

In the case of `COc1ccc(S(=O)(=O)N(Cc2cc3c(C)cc(C)cc3[nH]c2=O)CC2COCCO2)cc1` (stereo not drawn), the survival is inactive: 86%.

For `Cc1ccc(NC(=O)c2c(C)oc3ccc(O)c(CN4CCCCCC4)c23)c(C)c1`, the survival was inactive: 74%.

Consider `CCOC(=O)c1[nH]c(C)c(CCC(=O)NCc2ccc(OCC)cc2)c1C`, for which the survival is inactive: 94%.

In the case of `COc1ccc2c(C)c(CC(=O)NCc3ccc(C)cc3)c(=O)oc2c1OC`, the survival is inactive: 106%.

As to `CC(C)OCCCNC(=O)c1cc2c(-c3ccc(Cl)cc3)nn(C)c2s1`, the survival was inactive: 122%.

As to `O=C(Nc1ccc2c(c1)Cc1ccccc1-2)c1ccc(Br)o1`, the survival is inactive: 88%.

As to `COc1cc(NC(=O)C2CCCN(S(=O)(=O)c3ccc4c(c3)oc(=O)n4C)C2)c(C(=O)O)cc1OC` (stereo not drawn), the survival was inactive: 101%.

On to `CCCCC(Sc1nc2cc3c(cc2c(=O)n1CCCC(=O)NCc1ccc(OC)cc1)OCO3)C(=O)OCC` (stereo not drawn), for which the survival was inactive: 87%.

On to `Cc1cccc(C)c1Nc1sc(C(=O)c2ccccc2)c(N)c1C(=O)Nc1ccc(F)cc1`, for which the survival is inactive: 81%.

Turning to `O=C(O)C1CC=CCC1C(=O)NCCc1ccccc1` (stereo not drawn), the survival was inactive: 96%.

For `O=C(Cc1cccs1)Nn1c(Cc2cccs2)nc2ccccc2c1=O`, the survival is inactive: 58%.

Turning to `CCc1cccc(NC(=O)Cn2nc(-c3ccc(OC)cc3)ccc2=O)c1`, the survival was inactive: 83%.

Regarding `CCOC(=O)c1ccc(N2C(=O)c3n[nH]c(-c4cccs4)c3C2c2ccc(C(C)(C)C)cc2)cc1` (stereo not drawn), the survival was inactive: 102%.

As to `O=C(Nc1nc2n(n1)C(c1ccccc1)C=C(c1ccccc1)N2)c1ccc(Cl)c([N+](=O)[O-])c1` (stereo not drawn), the survival was inactive: 63%.

On to `COc1cccc(-c2ccc3c(N)c(C(=O)c4ccc(Cl)cc4)sc3n2)c1`, for which the survival is active: 30%.

In the case of `COc1cccc(C(=O)N2c3cc(C)ccc3C(C)(c3ccccc3)CC2(C)C)c1` (stereo not drawn), the survival was active: 1%.

Regarding `N#C/C(=C\c1ccc(Cl)cc1)c1nc(-c2cc3ccccc3oc2=O)cs1`, the survival was inactive: 75%.

As to `CCOC(=O)c1c(-c2ccccc2)oc2cc(CN(C)C)c(O)c(CN(C)C)c12`, the survival is inactive: 127%.
